In the supplement of paper PMC8291772:
± gives the standard error. Some of the results follow.

The sequences below were run against terminal deoxynucleotidyl transferase (calf thymus) (UniProt P06526) (assay: TdT poly-dT extension signal (Cy3 hybridisation fluorescence, uncapped minus capped) (fluorescence a.u.); higher = more efficient initiation of TdT extension). Conditions: initiator chemistry: 2'-O-methyl-RNA, free 3'-OH (5'-tethered via HEG linker).
Description: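 All mono- to pentamer 2'-O-methyl-RNA initiators were made by photolithographic in situ synthesis (3'-NPPOC amidites, reverse direction, free 3'-OH) on glass on a hexaethylene glycol linker. Each was made in uncapped and DMTr-dT-capped versions, about 11 replicates each. Arrays were extended with calf thymus TdT (0.2 U/uL), 100 uM dTTP and 0.25 mM CoCl2 for 120 min at 37 C, hybridised with an rA18-Cy3 probe and scanned at 532 nm. The value is the mean uncapped minus the mean capped signal. IDs are written 3'->5' and are reversed to 5'->3'; all nucleotides are 2'-OMe.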

Chain of UniProt P06526 (P06526 whole entry): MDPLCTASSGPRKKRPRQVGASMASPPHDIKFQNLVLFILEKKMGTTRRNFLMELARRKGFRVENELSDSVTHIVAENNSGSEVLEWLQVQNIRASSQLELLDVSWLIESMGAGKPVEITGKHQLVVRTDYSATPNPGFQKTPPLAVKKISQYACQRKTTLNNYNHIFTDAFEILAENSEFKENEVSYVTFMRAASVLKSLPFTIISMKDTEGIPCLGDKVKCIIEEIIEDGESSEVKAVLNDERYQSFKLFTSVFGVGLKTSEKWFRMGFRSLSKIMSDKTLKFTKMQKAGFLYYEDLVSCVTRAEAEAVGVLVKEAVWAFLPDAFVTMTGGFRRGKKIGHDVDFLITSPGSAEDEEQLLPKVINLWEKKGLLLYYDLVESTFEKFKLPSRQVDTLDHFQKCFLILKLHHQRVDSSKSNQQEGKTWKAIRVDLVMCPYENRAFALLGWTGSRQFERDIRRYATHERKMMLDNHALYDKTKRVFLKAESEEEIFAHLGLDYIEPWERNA

Sequence | TdT poly-dT extension signal
GCUUU | 241 ± 19
UGACC | 440 ± 21
GUCC | 420 ± 38
AAGGU | 522 ± 37
CGCU | 427 ± 65
CCUAC | 555 ± 31
GCCAU | 336 ± 25
UUCA | 382 ± 38
CAAU | 578 ± 28
GAAGU | 560 ± 32
CGGAC | 589 ± 55
CAUAU | 313 ± 19
AACUA | 675 ± 34
GCCCA | 380 ± 39
AACCC | 532 ± 43
UUUAG | 219 ± 19
CGUA | 437 ± 38
UCCGC | 1090 ± 36
CGCUA | 514 ± 42
GGCGG | 310 ± 26
UAAAA | 1190 ± 120
GUGA | 466 ± 30
CGUCC | 446 ± 24
CAUGG | 217 ± 15
UUGC | 843 ± 100

Sequence | TdT poly-dT extension signal
AGGUU | 260 ± 23
GGGAU | 569 ± 54
UUGUG | 124 ± 20
CGAGC | 1020 ± 61
UAAGC | 1190 ± 89
CGCAC | 915 ± 71
AUCUU | 279 ± 18
AUUCA | 256 ± 48
GCGA | 524 ± 40
ACUGA | 458 ± 33
UAAUA | 555 ± 38
GGUCC | 480 ± 51
GCCUU | 413 ± 30
UCUGA | 451 ± 45
GUAA | 501 ± 29
CUUAA | 575 ± 44
AUGUA | 350 ± 27
GGGU | 542 ± 35
CCACG | 296 ± 37
UAAGU | 526 ± 23
AGAGA | 827 ± 77
UCGG | 302 ± 31
CUCAU | 442 ± 25
UAGCA | 445 ± 20
UACUC | 455 ± 32

Sequence | TdT poly-dT extension signal
UUUUA | 313 ± 20
AAAAA | 1140 ± 80
GGCCA | 326 ± 37
AAUCA | 390 ± 17
CCAUC | 499 ± 61
GAGA | 676 ± 48
CACC | 429 ± 42
GAUA | 432 ± 34
CCUUU | 264 ± 11
CAUA | 591 ± 27
CCCGG | 318 ± 31
UCCCA | 324 ± 20
ACAGU | 558 ± 38
CCUUA | 372 ± 28
GGGGC | 1130 ± 68
CCCG | 312 ± 43
CGUUG | 147 ± 15
UGGU | 453 ± 25
GGGAG | 398 ± 23
GGUU | 299 ± 18
ACCGU | 480 ± 36
AGAUC | 420 ± 47
UCGUG | 242 ± 15
GAUAC | 516 ± 47
UCUCU | 263 ± 43

Sequence | TdT poly-dT extension signal
UGAUC | 406 ± 17
CGAAA | 972 ± 71
UAUCC | 354 ± 29
UGGGU | 490 ± 14
AAUUG | 181 ± 17
GAAGC | 1060 ± 81
UUCG | 159 ± 17
UGCUA | 564 ± 47
ACGAG | 518 ± 62
GCGAG | 518 ± 44
GUGCU | 344 ± 18
ACUUA | 421 ± 35
AGGCA | 374 ± 33
CGAUG | 257 ± 30
CAUC | 460 ± 29
UUAUC | 357 ± 23
AAGGA | 681 ± 42
AACU | 306 ± 22
CCCUC | 566 ± 40
CCCAU | 552 ± 28
UGUGG | 222 ± 21
UUUGC | 1010 ± 63
CACUU | 378 ± 26
UUCCG | 175 ± 30
UGAGU | 486 ± 72

Sequence | TdT poly-dT extension signal
ACUA | 511 ± 44
AGCG | 341 ± 47
UACG | 231 ± 24
ACAGA | 899 ± 79
UUUA | 338 ± 29
UGUUA | 348 ± 45
UUUU | 208 ± 14
AUCAC | 729 ± 63
CUAUC | 340 ± 27
AAGAC | 775 ± 54
AAACG | 329 ± 32
GUCA | 308 ± 23
AGUA | 459 ± 57
UAAC | 542 ± 42
CGUAA | 556 ± 43
CCCUG | 274 ± 14
AGGGC | 1120 ± 71
GUGC | 1030 ± 70
GUCAU | 506 ± 29
GGAGA | 880 ± 73
CGCGG | 356 ± 32
AUCCA | 392 ± 31
GCGAA | 1000 ± 120
AUUC | 339 ± 23
CACAC | 836 ± 66

Sequence | TdT poly-dT extension signal
CAUGA | 506 ± 40
GCGGA | 554 ± 28
ACUGG | 210 ± 26
AGGUG | 221 ± 21
CCGCC | 552 ± 28
UCAUG | 226 ± 23
ACGCG | 305 ± 32
CUAU | 384 ± 32
UGUC | 537 ± 48
ACAGG | 358 ± 32
GGAC | 724 ± 120
GACUC | 577 ± 33
UCGGG | 301 ± 22
UGUA | 352 ± 21
CAGUA | 544 ± 58
AUACU | 274 ± 19
UUGCC | 577 ± 79
UACC | 414 ± 42
AAAAU | 605 ± 43
GAAGG | 368 ± 27
UUCGG | 261 ± 25
GACAC | 708 ± 33
UGUGU | 343 ± 26
GGGCC | 531 ± 63
CUAUA | 436 ± 37

Sequence | TdT poly-dT extension signal
UUCCC | 377 ± 22
CAGC | 1170 ± 110
GCCC | 485 ± 57
GAUAU | 397 ± 23
CCUC | 581 ± 35
GCAU | 609 ± 72
UGAAG | 420 ± 35
CCCCA | 366 ± 33
AGCCU | 385 ± 21
AUCCG | 257 ± 33
ACGUA | 499 ± 57
UAUA | 375 ± 18
AGGAA | 924 ± 84
GGGGU | 547 ± 22
AUUGA | 322 ± 18
CUUCA | 254 ± 20
CCAGU | 534 ± 47
UCCAG | 395 ± 20
AUAUA | 431 ± 35
ACCCA | 470 ± 53
UACAA | 900 ± 74
CAGGC | 1060 ± 81
GGCG | 249 ± 26
CUGUG | 211 ± 32
GGAG | 374 ± 20

Sequence | TdT poly-dT extension signal
GGCCC | 503 ± 43
UGAGG | 320 ± 28
UAGC | 1000 ± 70
GUCGG | 298 ± 11
CCAG | 470 ± 39
CAGGU | 493 ± 28
GCGCC | 688 ± 79
AAGCU | 482 ± 66
AGGG | 378 ± 28
CACUG | 276 ± 22
UUGA | 347 ± 26
AAUUU | 252 ± 27
CGAC | 626 ± 41
UCAC | 706 ± 44
GCUUA | 458 ± 32
GAACC | 465 ± 33
GGACA | 337 ± 40
GAGGU | 553 ± 25
GACUG | 281 ± 31
ACCGA | 571 ± 67
UCCCC | 421 ± 44
GGAGC | 1340 ± 130
CGGUA | 477 ± 36
ACAAU | 596 ± 71
GAACG | 310 ± 29

Sequence | TdT poly-dT extension signal
CUAC | 450 ± 47
GCUAC | 629 ± 87
CGACA | 348 ± 31
GCAAA | 1260 ± 170
UCUCA | 353 ± 41
AGCAA | 883 ± 81
CUGG | 284 ± 26
UACAU | 485 ± 31
UCGGA | 471 ± 35
CUAGU | 414 ± 26
CAACA | 373 ± 34
CAACG | 347 ± 20
ACGGC | 894 ± 82
UAUUC | 301 ± 26
GUAUC | 404 ± 28
AGAAA | 870 ± 44
UAGCU | 375 ± 15
ACACA | 394 ± 65
GUCG | 285 ± 32
CGUAG | 402 ± 41
AUUUU | 177 ± 13
CAACC | 427 ± 30
UCGAU | 402 ± 31
GUGG | 266 ± 22
GUCU | 278 ± 20

Sequence | TdT poly-dT extension signal
GCACU | 411 ± 58
CUAGC | 785 ± 76
GCUAG | 242 ± 23
UUGAC | 732 ± 82
AGAAU | 430 ± 30
CGAAU | 446 ± 32
CCGCG | 351 ± 19
UUAU | 295 ± 21
CCGU | 516 ± 34
UAUG | 146 ± 15
GUGAC | 747 ± 46
UUUGU | 313 ± 23
ACGCA | 585 ± 79
UCGC | 1140 ± 90
UCCG | 204 ± 16
GACUA | 583 ± 75
AUGGA | 466 ± 24
AAACA | 425 ± 51
UUCCA | 372 ± 59
AUUUA | 301 ± 17
UGAAC | 702 ± 32
AAGAA | 1060 ± 63
AUGAA | 715 ± 45
UACA | 411 ± 46
UGGGA | 457 ± 36

Sequence | TdT poly-dT extension signal
ACAUC | 447 ± 23
UUCUA | 516 ± 55
ACUCC | 414 ± 41
UCAU | 516 ± 30
CAAGA | 858 ± 93
AGGCU | 415 ± 46
AGAAG | 511 ± 44
AGUAC | 409 ± 38
GUGUC | 660 ± 87
UGAAA | 894 ± 54
GACUU | 318 ± 22
GAGAG | 522 ± 55
ACAUA | 595 ± 39
UGCUC | 572 ± 47
CUCUG | 252 ± 20
UGCGC | 836 ± 41
GUGAA | 729 ± 86
GGGCA | 291 ± 26
UGGAC | 764 ± 41
UUGAG | 289 ± 14
AAGAG | 575 ± 46
UGAUA | 499 ± 45
UCGAG | 440 ± 22
AGUAA | 666 ± 77
